We go through 110 sequences from PMC6212790.

The other results are listed elsewhere or left out. At the low end of the ranking, values are background and their order means little.

This experiment has as its target T1, GST-Rok (full length) (UniProt O34857).
T1 sequence: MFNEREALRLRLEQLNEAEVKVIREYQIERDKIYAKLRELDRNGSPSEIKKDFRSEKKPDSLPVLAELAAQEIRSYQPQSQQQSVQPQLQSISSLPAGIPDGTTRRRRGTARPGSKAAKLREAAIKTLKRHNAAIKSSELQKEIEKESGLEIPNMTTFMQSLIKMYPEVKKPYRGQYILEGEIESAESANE
Nature of the experiment: protein binding microarray.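 Note: rank score from −0.5 (least bound) to 0.5 (best bound).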 As to conditions: Rok is a gene silencer of Bacillus subtilis; high values mean tight binding; most listed sequences are background and not binding sites; double strand, one strand shown.
For GAATAGAA, the binding signal turned out to be 0.101 E-score.

AGAAGGTA came in with a binding signal of 0.129 E-score.

Regarding ACCCATTA, the binding signal was found to be 0.168 E-score.

Consider AAGACCCT, for which the binding signal is -0.303 E-score.

As for AACAGTCC, the binding signal was -0.136 E-score.

In turn, ACGGTTAC displayed a binding signal of 0.00958 E-score.

In turn, AACATTAT displayed a binding signal of 0.278 E-score.

In the case of GTGAGATA, the binding signal turned out to be 0.106 E-score.

As for CTCCAGTC, the binding signal is -0.286 E-score.

Consider AGGATTGA, for which the binding signal is 0.00691 E-score.

As for GGTTCAGA, the binding signal was -0.153 E-score.

As for GCGACACC, the binding signal was -0.24 E-score.

For the sequence CTTGGTGC, the binding signal is -0.209 E-score.

Regarding AAAGGGGG, the binding signal was -0.255 E-score.

AACTCCCT: the binding signal is -0.0881 E-score.

The sequence AGTAGACA came in with a binding signal of 0.0413 E-score.

With GAATCAAC, the binding signal was -0.127 E-score.

As for AGAAGAAG, the binding signal is -0.172 E-score.

The sequence ATTCTATC gave a binding signal of 0.348 E-score.

Sequence GCGCACAA returned a binding signal of 0.0572 E-score.

Take CTTATCCA: the binding signal was -0.143 E-score.

Sequence CCGTGCAA registered a binding signal of 0.0277 E-score.

For the sequence GTTTCCTA, the binding signal was 0.189 E-score.

With CCTGGACG, the binding signal was -0.302 E-score.

AATGGTCA yielded a binding signal of 0.166 E-score.

In the case of CCCGTTGA, the binding signal was -0.0132 E-score.

Regarding GAACCGTA, the binding signal was 0.0996 E-score.

Take ATATATAG: the binding signal came out at 0.416 E-score.

In turn, CCTACTGA returned a binding signal of 0.00999 E-score.

AGCAATCG registered a binding signal of 0.0808 E-score.

AAGGTTAC: the binding signal was -0.062 E-score.

The sequence CACAAAGA displayed a binding signal of 0.0297 E-score.

CATTAGAG: the binding signal was determined as 0.0735 E-score.

In the case of CTGGTTGC, the binding signal was -0.194 E-score.

Consider AATGTGGC, for which the binding signal was -0.164 E-score.

Consider ACGCCTAT, for which the binding signal was -0.0979 E-score.

Regarding CGGTCCCA, the binding signal is -0.229 E-score.

Take CCGACTAC: the binding signal is -0.28 E-score.

On to GCGCAACC, for which the binding signal is -0.0164 E-score.

For the sequence GGCAGACC, the binding signal was -0.217 E-score.

Regarding AGTACTCG, the binding signal was determined as 0.171 E-score.

AACTTTCT registered a binding signal of 0.268 E-score.

As to CCCACGTA, the binding signal came out at 0.0395 E-score.

As to CACCCGGG, the binding signal was -0.386 E-score.

Consider AGGCCCGA, for which the binding signal was -0.282 E-score.

Take AAAGCCAC: the binding signal was -0.106 E-score.

Regarding ACGGGCGA, the binding signal is -0.0326 E-score.

Consider ACCAGTTG, for which the binding signal amounted to 0.0478 E-score.

CGAATTGA returned a binding signal of 0.0234 E-score.

In turn, TCGATGCA returned a binding signal of 0.102 E-score.

CTCACCAA: the binding signal was -0.108 E-score.

In the case of ATGCCGGG, the binding signal was -0.213 E-score.

In the case of CGTCTCGC, the binding signal is -0.232 E-score.

For AGACTTTC, the binding signal is -0.0842 E-score.

Take CTCGATGC: the binding signal was -0.0821 E-score.

Turning to AGGGCTGG, the binding signal was -0.33 E-score.

On to AGCATGAT, for which the binding signal turned out to be 0.178 E-score.

For CGTCAGCC, the binding signal was -0.228 E-score.

Regarding CCCCCGCG, the binding signal is -0.309 E-score.

TAGATCGA showed a binding signal of 0.199 E-score.

TATAACGA registered a binding signal of 0.245 E-score.

GAATCTCA showed a binding signal of 0.0703 E-score.

Consider CTTACCGA, for which the binding signal came to 0.204 E-score.

Take CGGTGTCC: the binding signal was -0.389 E-score.

Consider GGTCATCA, for which the binding signal is -0.133 E-score.

CATAGCCA: the binding signal was -0.146 E-score.

With AAGACAGC, the binding signal was -0.221 E-score.

Take AGCCGCGC: the binding signal is -0.28 E-score.

CATCCGAG yielded a binding signal of 0.091 E-score.

Take AGTTGAAA: the binding signal came out at 0.0758 E-score.

For CATACGCG, the binding signal was -0.0538 E-score.

As for AAGTGCCT, the binding signal is -0.202 E-score.

As to CTCAAACC, the binding signal is -0.089 E-score.

As to CCCACCCA, the binding signal is -0.0202 E-score.

Regarding GTTCAGCA, the binding signal is -0.000192 E-score.

Take TATCGGAA: the binding signal was 0.146 E-score.

CACATTTC displayed a binding signal of 0.239 E-score.

GATTTACA: the binding signal turned out to be 0.345 E-score.

For the sequence AGACCGCT, the binding signal was -0.249 E-score.

In turn, ACAATAGT showed a binding signal of 0.297 E-score.

In the case of CACTTTGG, the binding signal was -0.0911 E-score.

Turning to AATTCTTG, the binding signal is 0.207 E-score.

In the case of AGCCAGCT, the binding signal is -0.121 E-score.

With TTACCTAA, the binding signal was 0.248 E-score.

For the sequence CGCAAGTC, the binding signal is -0.0637 E-score.

With GAAACTTA, the binding signal came to 0.141 E-score.

With AACGACAT, the binding signal came out at 0.182 E-score.

On to ACCCAAAA, for which the binding signal turned out to be 0.0448 E-score.

The sequence CCATGCTA came in with a binding signal of 0.073 E-score.

With CCGCGCGG, the binding signal is -0.165 E-score.

Sequence ACGATTAG gave a binding signal of 0.0305 E-score.

Take ACGAACAA: the binding signal worked out at 0.121 E-score.

As to AGGCGCGC, the binding signal was -0.0647 E-score.

As to ACAGCACA, the binding signal is -0.0201 E-score.

ATACGGTA: the binding signal was 0.348 E-score.

On to GGTAGCAA, for which the binding signal was 0.241 E-score.

Turning to CACGTGAA, the binding signal worked out at 0.147 E-score.

In the case of GAATGAGA, the binding signal amounted to 0.00563 E-score.

Take CAGTATTC: the binding signal is -0.0222 E-score.

As for AAGGACGT, the binding signal is -0.0971 E-score.

ATTCTTCA returned a binding signal of 0.0308 E-score.

AAGTGCGC: the binding signal amounted to 0.0011 E-score.

Turning to AGAATAAG, the binding signal was found to be 0.105 E-score.

For GCCTCACA, the binding signal is -0.117 E-score.

On to CTCCAGTA, for which the binding signal was 0.0749 E-score.

Consider ACCCAGGC, for which the binding signal was -0.376 E-score.

On to GTTTTGGA, for which the binding signal was -0.00232 E-score.

Take ACATACCG: the binding signal was found to be 0.263 E-score.

For AGTTGCCG, the binding signal was -0.0803 E-score.

Sequence CATTACTA came in with a binding signal of 0.296 E-score.
